Test results published in the supplement of paper PMC10126150.
Sequences with one replicate were seen in a single cluster, so their values are uncertain.

System: ATP
Assay: switch fluorescence ratio, 500 uM ATP over buffer (Cy3 cluster intensity, sum of 5 cycles each) (fold (ratio)); higher = stronger signal-on switching upon ATP binding; sequences stand for … in TCGTCGGCAGCGTCAGATGTGTATAAGAGACAGTTTTTTTTTTTTTTTTTTTTTTTTT…TC
Settings: aptamer strand: ATP DNA aptamer (quencher-CACCTGGGGGAGTATTGCGGAGGAAGG + anchor), 100 nM annealed; ATP concentration: 500 uM; one replicate
Outline: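 Clusters with intensities outside 100-1000 RFU were excluded. The remaining Cy3-labelled switching-strand clusters on a modified Illumina MiSeq flow-cell had been annealed to 100 nM quencher-labelled ATP aptamer and imaged in selection buffer, then after 15 min with 500 uM ATP at 22 °C, for five cycles separated by NaOH stripping and re-annealing. The fluorescence ratio, averaged per switch-domain sequence, is each cluster's summed target-cycle Cy3 intensity over its summed buffer-cycle Cy3 intensity.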
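Further: ATP exposure 15 min at 22 °C before imaging.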

Q: TATAGTTATG was tested. Which switch fluorescence ratio did it give?
A: 1.01

Q: Which switch fluorescence ratio does the source give for TATTTCAGCA here?
A: 0.989

Q: How did the switch fluorescence ratio turn out when CAGGACATAG was run?
A: 0.968

Q: How did the switch fluorescence ratio turn out when CGCATATGA was run?
A: 1.96

Q: Which switch fluorescence ratio does the source give for CTGCATAAG here?
A: 1.17

Q: With TTCACACAGC as the sequence, how does the switch fluorescence ratio read?
A: 1.09

Q: How did the switch fluorescence ratio turn out when ATAGAAGTGT was run?
A: 1.01

Q: ACATAACCTT was tested. Which switch fluorescence ratio did it give?
A: 1.73

Q: How did the switch fluorescence ratio turn out when AGATACCGTT was run?
A: 1.02

Q: CGTAATTGG was tested. Which switch fluorescence ratio did it give?
A: 1.01

Q: With TAATCATA as the sequence, how does the switch fluorescence ratio read?
A: 1.04

Q: For CTTTTCGAGA, which switch fluorescence ratio is on record?
A: 1.05

Q: Which switch fluorescence ratio does the source give for ATCATTTG here?
A: 0.977

Q: For GTCTACCCTT, which switch fluorescence ratio is on record?
A: 1.08

Q: How did the switch fluorescence ratio turn out when AGTCTAATAC was run?
A: 1.91

Q: For CTTCTTTAAC, which switch fluorescence ratio is on record?
A: 1.03

Q: For TGGCGGCCGG, which switch fluorescence ratio is on record?
A: 0.964

Q: Which switch fluorescence ratio does the source give for TGAATTATGC here?
A: 0.989

Q: GTGCTGGTTG was tested. Which switch fluorescence ratio did it give?
A: 0.994

Q: TGACCCAAGA was tested. Which switch fluorescence ratio did it give?
A: 1.02

Q: With TGGCGCTACT as the sequence, how does the switch fluorescence ratio read?
A: 1.09

Q: For AGGAAGGTGG, which switch fluorescence ratio is on record?
A: 1.01

Q: TAGGGCTGCC was tested. Which switch fluorescence ratio did it give?
A: 1.01

Q: Which switch fluorescence ratio does the source give for CAGATCGTTA here?
A: 1.02

Q: How did the switch fluorescence ratio turn out when CCGGCGAAGT was run?
A: 1.1

Q: For CGACTCCAAA, which switch fluorescence ratio is on record?
A: 1.32

Q: Which switch fluorescence ratio does the source give for TCGGTCGCGA here?
A: 0.986

Q: How did the switch fluorescence ratio turn out when TCGGCGCGAA was run?
A: 1.19

Q: Which switch fluorescence ratio does the source give for GCGTACAGGC here?
A: 0.957

Q: With GAGGCGACTC as the sequence, how does the switch fluorescence ratio read?
A: 0.994

Q: For CATAACTATG, which switch fluorescence ratio is on record?
A: 0.97

Q: AAAGACTTAT was tested. Which switch fluorescence ratio did it give?
A: 0.993

Q: For TCTCACATTG, which switch fluorescence ratio is on record?
A: 0.987

Q: Which switch fluorescence ratio does the source give for TGTGACACTC here?
A: 1.02

Q: Which switch fluorescence ratio does the source give for CTTACGCCCA here?
A: 1.1

Q: AAGATATATG was tested. Which switch fluorescence ratio did it give?
A: 1

Q: How did the switch fluorescence ratio turn out when ACCATTGAGA was run?
A: 0.997

Q: How did the switch fluorescence ratio turn out when CATTTGTGAG was run?
A: 0.919

Q: With ACAACTTTAC as the sequence, how does the switch fluorescence ratio read?
A: 1.14

Q: GAGGTGCTAA was tested. Which switch fluorescence ratio did it give?
A: 0.958

Q: How did the switch fluorescence ratio turn out when CCGTAAATGA was run?
A: 2.21

Q: How did the switch fluorescence ratio turn out when TTTGCATTGG was run?
A: 1.13

Q: Which switch fluorescence ratio does the source give for CGCGCCTCCT here?
A: 1.21

Q: With AGCCTCGGGA as the sequence, how does the switch fluorescence ratio read?
A: 1.04

Q: For AGCAGAAGAA, which switch fluorescence ratio is on record?
A: 0.958

Q: GAGGATTACC was tested. Which switch fluorescence ratio did it give?
A: 0.99

Q: With CCCAGGTCTG as the sequence, how does the switch fluorescence ratio read?
A: 1.88

Q: TGCAATGGTA was tested. Which switch fluorescence ratio did it give?
A: 1.05

Q: For GGAACTTCTT, which switch fluorescence ratio is on record?
A: 1.04

Q: With GCGGGTAAAA as the sequence, how does the switch fluorescence ratio read?
A: 1.02

Q: With TGAAGCATGG as the sequence, how does the switch fluorescence ratio read?
A: 1.26

Q: AGTTCGATGG was tested. Which switch fluorescence ratio did it give?
A: 0.976

Q: How did the switch fluorescence ratio turn out when CGGTTGCCTT was run?
A: 0.932

Q: With CGCTGGCCAA as the sequence, how does the switch fluorescence ratio read?
A: 1.14

Q: How did the switch fluorescence ratio turn out when TGACCGGAAA was run?
A: 0.998

Q: How did the switch fluorescence ratio turn out when GTGCTTTAGA was run?
A: 0.967

Q: How did the switch fluorescence ratio turn out when CGAGTAAAAG was run?
A: 1.03

Q: CACAGTTGCG was tested. Which switch fluorescence ratio did it give?
A: 0.999

Q: With GCGCTTACGT as the sequence, how does the switch fluorescence ratio read?
A: 1.1

Q: With GCTGCACTCT as the sequence, how does the switch fluorescence ratio read?
A: 1.06

Q: How did the switch fluorescence ratio turn out when ACACGGATTA was run?
A: 1.06

Q: For ACTTAGCGCG, which switch fluorescence ratio is on record?
A: 1.06

Q: TAAGTAACCG was tested. Which switch fluorescence ratio did it give?
A: 1.05

Q: With CGGGATTCTA as the sequence, how does the switch fluorescence ratio read?
A: 0.982

Q: Which switch fluorescence ratio does the source give for TAATCAGGGA here?
A: 1.03

Q: How did the switch fluorescence ratio turn out when CTGCCGAAGG was run?
A: 1.01

Q: Which switch fluorescence ratio does the source give for GGGCCGCGTC here?
A: 2

Q: With CCTTGTCAAA as the sequence, how does the switch fluorescence ratio read?
A: 1.13

Q: How did the switch fluorescence ratio turn out when TAAATCTAGG was run?
A: 0.991

Q: Which switch fluorescence ratio does the source give for ATAATCTTTG here?
A: 0.999

Q: CGGCGAATAG was tested. Which switch fluorescence ratio did it give?
A: 1.05

Q: AGGTATGAGC was tested. Which switch fluorescence ratio did it give?
A: 0.971

Q: ACTCGATTTG was tested. Which switch fluorescence ratio did it give?
A: 0.999

Q: TAAAAGGAGC was tested. Which switch fluorescence ratio did it give?
A: 1.01

Q: AAATGGCTCA was tested. Which switch fluorescence ratio did it give?
A: 1.01

Q: For TTAGTGCCCT, which switch fluorescence ratio is on record?
A: 1.09

Q: Which switch fluorescence ratio does the source give for CAGACCGCCA here?
A: 1.58

Q: Which switch fluorescence ratio does the source give for CAAAGGGG here?
A: 1.07

Q: TATGGTAAAA was tested. Which switch fluorescence ratio did it give?
A: 1.01

Q: For TAAACTCCTA, which switch fluorescence ratio is on record?
A: 1.06

Q: TATCAGCACT was tested. Which switch fluorescence ratio did it give?
A: 1.06

Q: Which switch fluorescence ratio does the source give for GGTGGGCATG here?
A: 1

Q: With CAAAACGTGT as the sequence, how does the switch fluorescence ratio read?
A: 0.963

Q: GGACAATACG was tested. Which switch fluorescence ratio did it give?
A: 1.15

Q: ATTGAGTCCT was tested. Which switch fluorescence ratio did it give?
A: 0.999
